# Laboratory results published in PubChem BioAssay AID588579 (National Center for Advancing Translational Sciences (NCATS), 2011).
# The campaign covered roughly 400,000 compounds. About 2,200 (0.55%) were called active. Inconclusive means that the source gave no clear call. Such entries were picked first, then a sample of the others. Calls come from the whole dose curve; as a rule, active = well fitted inhibition curve with a large enough effect; inconclusive = small, poorly fitted or top-dose-only effect, or another doubt; inactive = no such curve, though single readings can be large or run the other way. A potency beside an inconclusive call is a rough fit, not a confirmed value. Non-standard residues stand in square brackets, D forms with d. Residues, ends and D or L forms follow the SMILES beside them. NMeL = CN[C@@H](CC(C)C)C(=O)O; Nva = CCC[C@H](N)C(=O)O
# Biological target: DNA polymerase kappa (Homo sapiens) (UniProt Q9UBT6)
# Assay: qHTS for Inhibitors of Polymerase Kappa
# Settings: purified Pol kappa, fluorescent DNA synthesis assay, 10 min; series mostly up to 107 µM
# Method in brief: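 10 nM Pol kappa was preincubated with compounds for 15 min at room temperature. Reaction started with 50 nM (final) substrate. Fluorescence read kinetically at 0 and 10 min.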
# Potency is the fitted concentration of half-maximal effect; tags give direction and shape of the fitted curve.
# Sequence of UniProt Q9UBT6 (Q9UBT6 whole entry, looked up): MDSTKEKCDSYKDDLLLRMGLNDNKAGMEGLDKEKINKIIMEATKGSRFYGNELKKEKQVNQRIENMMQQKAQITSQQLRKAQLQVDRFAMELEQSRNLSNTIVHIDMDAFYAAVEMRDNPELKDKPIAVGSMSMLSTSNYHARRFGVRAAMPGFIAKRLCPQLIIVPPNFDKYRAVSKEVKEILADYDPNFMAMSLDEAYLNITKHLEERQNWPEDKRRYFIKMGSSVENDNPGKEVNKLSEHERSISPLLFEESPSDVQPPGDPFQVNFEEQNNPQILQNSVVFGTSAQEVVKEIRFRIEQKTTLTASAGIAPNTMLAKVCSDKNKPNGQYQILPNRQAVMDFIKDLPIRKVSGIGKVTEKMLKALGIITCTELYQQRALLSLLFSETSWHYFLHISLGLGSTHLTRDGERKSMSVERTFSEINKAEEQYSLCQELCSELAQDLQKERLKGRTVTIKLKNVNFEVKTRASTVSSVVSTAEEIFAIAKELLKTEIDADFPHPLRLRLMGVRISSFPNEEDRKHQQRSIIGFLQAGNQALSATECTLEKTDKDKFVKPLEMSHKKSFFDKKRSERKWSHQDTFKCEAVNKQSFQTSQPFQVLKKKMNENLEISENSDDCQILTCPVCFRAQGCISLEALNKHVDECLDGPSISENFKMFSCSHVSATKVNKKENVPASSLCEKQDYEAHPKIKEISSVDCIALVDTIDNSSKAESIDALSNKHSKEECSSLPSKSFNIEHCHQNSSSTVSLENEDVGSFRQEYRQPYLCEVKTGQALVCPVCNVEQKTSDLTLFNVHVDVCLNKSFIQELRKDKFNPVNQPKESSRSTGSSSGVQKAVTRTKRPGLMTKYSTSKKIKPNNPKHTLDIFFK
row,Compound,Potency
1,Cc1ccc(C2(SCC(N)C(=O)O)c3ccccc3-c3ccccc32)cc1 (configuration not stated),"inconclusive: 56.2 µM [inhibitor, partial curve, poor fit]"
2,COc1cc2cc(Oc3ccc4ccc(=O)oc4c3)c(=O)oc2cc1O[C@@H]1O[C@H](CO)[C@@H](O)[C@H](O)[C@H]1O,active: 44.7 µM
3,COc1ccc(C(=O)N/N=C(/C)c2cccc(NC(=O)c3ccncc3)c2)cc1OC,"inconclusive: 100 µM [inhibitor, single point]"
4,Cc1nc(S/C(=C/c2ccc(-c3ccc(C(=O)O)cc3)o2)C(=O)O)n[nH]1,"inconclusive: 56.2 µM [inhibitor, partial curve, poor fit]"
5,COC(=O)c1cc(S(=O)(=O)N2CCN(c3cc(Cl)ccc3C)CC2)c[nH]1,"inconclusive: 89.1 µM [inhibitor, single point]"
6,NNc1cc([N+](=O)[O-])cc2c1C(=O)N(Cc1ccccc1)S2=O (configuration not stated),active: 79.4 µM
7,Cc1ccccc1-c1nc(N2CCOCC2)c2ccccc2n1,"inconclusive: 39.8 µM [inhibitor, single point]"
8,COc1ccc(Cl)cc1NC(=O)CSc1nnc2[nH]c(=O)cc(C)n12,inactive
9,O=C(NCC(=O)N(c1ccc2c(c1)OCO2)C(C(=O)NC1CCCC1)c1ccncc1)c1ccco1 (configuration not stated),"inconclusive: 89.1 µM [inhibitor, single point]"
10,CSc1ccc(/C=C2\CCn3c2nc2cc(C(=O)O)ccc2c3=O)cc1,inactive
11,COc1cc(OC)c(OC)cc1/C=C/C(=O)OCC(=O)Nc1c(C)n(C)n(-c2ccccc2)c1=O,inactive
12,Cn1cnnc1SCC(=O)Nc1ncc([N+](=O)[O-])s1,active: 70.8 µM
13,O=C(COC(=O)c1ccc(F)cc1Cl)NCc1ccco1,"inconclusive: 89.1 µM [inhibitor, single point]"
14,Cc1cc(C)c(C)c(S(=O)(=O)N[C@@H](C)C(=O)OCc2cc(=O)n3cc(Br)ccc3n2)c1C,"inconclusive: 89.1 µM [inhibitor, single point]"
15,COc1ccc(NS(=O)(=O)c2cccc(C(=O)NNC(=O)c3ccc(=O)[nH]c3)c2)cc1,inactive
16,Cc1noc(NS(=O)(=O)c2ccc(NC(=O)c3ccoc3C)cc2)c1C,"inconclusive: 79.4 µM [inhibitor, partial curve, poor fit]"
17,CO[C@@]12[C@@H]3N[C@@H]3CN1C1=C(C(=O)C(N)=C(C)C1=O)[C@@H]2COC(N)=O,"inconclusive: 89.1 µM [inhibitor, single point]"
18,CCOc1ccc(Cc2nccc3cc(OCC)c(OCC)cc23)cc1OCC,"inconclusive: 25.1 µM [inhibitor, partial curve, poor fit]"
19,COC(=O)C1CCN(C(=O)COC(=O)CNS(=O)(=O)c2ccc(SC)c([N+](=O)[O-])c2)CC1,inactive
20,COc1ccc(OCC(=O)N/N=C/c2cccn2-c2cccc(C(=O)O)c2)cc1,active: 79.4 µM
21,COCOc1ccc(-c2cc(=O)c3c(OCOC)cc(OCOC)cc3o2)cc1,inactive

row,Compound,Potency
1,Fc1ccc(Nc2nc(-c3cccnc3)nc3ccccc23)cc1,"inconclusive: 31.6 µM [inhibitor, single point]"
2,COc1ccc(C(CC(=O)N2CCCCC2)c2c(OC)cc(OC)c3ccc(=O)oc23)cc1 (configuration not stated),"inconclusive: 100 µM [inhibitor, partial curve, poor fit]"
3,Cc1ccc(-c2nnc(Cc3ccc(Cl)cc3)o2)cc1,"inconclusive: 89.1 µM [inhibitor, single point]"
4,OCC1OC([S-])[C@H](O)C(O)C1O.[Au+] (some centres not stated),active: 5.01 µM
5,COc1ccc2noc3c2c1C(=O)c1ccccc1-3,"inconclusive: 79.4 µM [inhibitor, partial curve, poor fit]"
6,O=C(COc1ccccc1)Nc1sc2c(c1C(=O)Nc1ccccc1)CCCCC2,"inconclusive: 79.4 µM [inhibitor, single point]"
7,O=C(CSc1nnc2ccccn12)NC(=O)c1ccccc1Cl,"inconclusive: 89.1 µM [inhibitor, single point]"
8,O=S(=O)(c1cc(O)ccc1O)c1cccc2c(S(=O)(=O)c3cc(O)ccc3O)cccc12,active: 17.8 µM
9,N=C1/C(=C/c2ccc(Br)o2)C(=O)N=C2SC(CC(=O)N3CCCC3)=NN12,active: 35.5 µM
10,C/C(=N\NC(=O)c1ccoc1C)c1cccnc1,"inconclusive: 89.1 µM [inhibitor, partial curve, poor fit]"
11,O=c1[nH]c(Nc2ccccc2)cc2cc(Br)ccc12,"inconclusive: 79.4 µM [inhibitor, partial curve, poor fit]"
12,O=c1oc(-c2ccccc2)nc2sc3c(c12)CCC3,active: 79.4 µM
13,CCOc1cc(/C=N/Nc2nnc(C)n2N)ccc1OC(C)=O,inactive
14,O=C(N/N=C\c1cccnc1)c1ccc(Br)s1,"inconclusive: 89.1 µM [inhibitor, single point]"
15,CC(=O)Nc1ccc(S(=O)(=O)Nc2nc3ccccc3nc2Nc2ccc(N)cc2)cc1,inactive
16,COc1cccc(=O)c2c(C)n(-c3ccc(C(=O)O)cc3)c(C)c12,active: 50.1 µM
17,Cc1noc(NS(=O)(=O)c2ccc(NC(=O)c3ccc(Br)cc3)cc2)c1C,"inconclusive: 35.5 µM [inhibitor, partial curve, poor fit]"
18,CCC[C@H](NC(=O)[C@H](CC(C)C)N(C)C(=O)CNC(=O)[C@@H](NC(=O)[C@H](Cc1ccccc1)NC(=O)[C@H](CCCCN)NC(=O)[C@@H](N)CC(=O)O)C(C)C)C(N)=O (H-DKFVG[NMeL][Nva]-NH2),inactive
19,O=C(COc1ccccc1C(=O)N/N=C\c1ccc(O)c(O)c1)N/N=C/c1ccc(O)c(O)c1,active: 0.708 µM
20,COCCOC(=O)c1sc(=S)n(CCOC)c1N,"inconclusive: 89.1 µM [inhibitor, partial curve, poor fit]"
21,O=C(CSc1nnc(COc2ccccc2Cl)o1)NC(=O)NCc1ccco1,"inconclusive: 89.1 µM [inhibitor, single point]"
